From PubChem BioAssay AID1347055 (National Center for Advancing Translational Sciences (NCATS), 2019)
Where “and” joins values, the source holds several entries; their conditions need not be identical. Identical values can stand only once. Out of some 54,000 compounds screened, about 120 (0.22%) were called active. The shares of active, inactive and inconclusive entries below differ from those in the screen. The call rests on the fitted dose curve; in most records, active means well fitted inhibition curve with a large enough effect; inconclusive means small, poorly fitted or top-dose-only effect, or effect the other way; inactive means flat fitted curve, though single readings scatter. Potencies beside an inconclusive call are fits to weak or partial responses and may not hold up.

Biological target: Fumarate hydratase, mitochondrial (Homo sapiens) (UniProt P07954)
Assay: Identification of activators of human fumarate hydratase by quantitative high-throughput screening; further: the screen sought activators but most active calls are inhibition curves; nearly all actives have a fitted effect of over 45% in size
Details: FH coupled MDH/diaphorase resazurin fluorescence, 15 min; activity change, negative = inhibition: at 79.9 µM (top of the series)
Text: Fumarate hydratase (FH) is a metabolic enzyme that is part of the Krebs-cycle, and reversibly catalyzes the hydration of fumarate to malate. Mutations of the FH gene have been associated with fumarate hydratase deficiency (FHD), hereditary leiomyomatosis, renal cell cancer (HLRCC), and other diseases. Currently there are no high-quality small molecule probes for studying human fumarate hydratase. To address this, we developed a quantitative high throughput screening (qHTS) FH assay and screened a total of 57,037 compounds in dose-response. While no inhibitors of FH were confirmed, a series of phenyl-pyrrolo-pyrimidine-diones (12 compounds) were identified as activators of human fumarate hydratase. […] The binding of two compounds from the series to human fumarate hydratase was confirmed by microscale thermophoresis. The low hit rate in this screening campaign confirmed that FH is a "tough target" to modulate, and the small molecule activators of human fumarate hydratase reported here may serve as a starting point for further optimization and development into cellular probes of human FH and potential drug candidates.
For primary high-throughput screen, 3 ul of FH solution (containing 13.33nM human fumarate hydratase, 13.33IU/ml malic dehydrogenase, 0.2mM NAD, 0.067mg/ml diaphorase and 0.067mM resazurin in the assay buffer (50 mM Tris pH 8.0, 5 mM MgCl2, 0.01% Brij 3) was dispensed into each well in a black solid bottom 1536-well assay plate (Greiner Bio-One) using a BioRAPTR FRD dispenser (Beckman Coulter, Brea, CA). A 1536-well pintool dispenser outfitted with 20 nl pins (Wako Automation, San Diego, CA) was used to transfer 20 nL of DMSO-solubilized compound (Cherrypick plates) to each 1536-well assay plate. Each compound was screened at five concentrations: 15 nM, 151 nM, 1.5 uM, 15.4 uM, 76.9 uM. Following compound transfer, plates were incubated in room temperature for 10 minutes. 1 uL of substrate solution containing fumaric acid (160 uM) was dispensed via BioRAPTR FRD to initiate the reaction. Plates were immediately transferred to a ViewLux microplate imager (PerkinElmer, Waltham, MA), and any resulting resorufin fluorescence was measured (exitation/emission, 525/598 nm) at 0 and 15 minutes. The exposure time is 1 second. Fluorescence from each well was normalized using enzyme-free and DMSO-treated control wells on each plate, and changes in fluorescence (delta RFU) were calculated using the difference in fluorescent signal for each well at 15 minutes versus 0 minutes.
On the % scale 0 is the no-effect control and ±100 the full control effect; potency means the concentration at half of the fitted maximal effect; tags describe the fitted curve by direction and shape.

Chain of UniProt P07954 (P07954 whole entry, looked up): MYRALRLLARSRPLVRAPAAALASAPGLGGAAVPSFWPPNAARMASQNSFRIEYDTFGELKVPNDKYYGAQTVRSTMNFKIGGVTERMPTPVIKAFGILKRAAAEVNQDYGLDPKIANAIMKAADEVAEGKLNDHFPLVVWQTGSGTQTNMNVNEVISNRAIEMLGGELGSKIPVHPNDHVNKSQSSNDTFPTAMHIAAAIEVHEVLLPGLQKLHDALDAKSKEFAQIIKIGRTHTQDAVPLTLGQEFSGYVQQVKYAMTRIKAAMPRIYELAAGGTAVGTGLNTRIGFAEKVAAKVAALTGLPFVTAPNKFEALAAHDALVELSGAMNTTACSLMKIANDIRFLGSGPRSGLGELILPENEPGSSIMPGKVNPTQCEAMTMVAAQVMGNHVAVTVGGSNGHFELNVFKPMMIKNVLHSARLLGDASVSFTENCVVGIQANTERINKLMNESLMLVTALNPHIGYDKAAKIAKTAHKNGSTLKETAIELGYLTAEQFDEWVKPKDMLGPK

Compound | activity change, negative = inhibition | Potency
CCOc1ccc(CN2CCc3nc(Nc4ccc5c(c4)OCCO5)ncc3C2)cc1 | inactive: -18.4% | 
CC#CC(=O)Nc1ccc2ncnc(Nc3cccc(Br)c3)c2c1 |  | inactive
CCOc1ccc(NC(=O)C(=O)NCc2ccco2)cc1 | inactive: 5.77% | 
Cc1c(F)ccc(C(=O)Nc2cc([N+](=O)[O-])ccc2N2CCN(C)CC2)c1Cl | inactive: 5.95% | 
Cc1cccc(NC(=O)CSc2nc3ccccc3nc2N2CCOCC2)c1C |  | inconclusive: 50.1 µM [inhibitor, single point]
CCc1cnc2c(c1SCC(=O)c1ccc(Cl)cc1)c(=O)n(C)c(=O)n2C |  | inconclusive: 11.2 µM [inhibitor, single point]
CCSc1nnc(NC(=O)c2cc(=O)c3cc(C)c(C)cc3o2)s1 |  | inconclusive: 39.8 µM [inhibitor, single point]
CCOC(=O)C1=C(C)NC(C)=C(C(=O)OCC)C1c1ccccc1/C=C/C(=O)OC(C)(C)C |  | inconclusive: 38.9 µM [inhibitor, single point]
COc1ccc(-n2cc(-c3ccccc3)c3c(NC4CCCCC4)ncnc32)cc1 |  | inconclusive: 25.1 µM [inhibitor, partial curve, poor fit]
COc1cc(/C=C/C(=O)O[C@H]2[C@H](OC(=O)/C=C/c3cc(OC)c(O)c(OC)c3)O[C@H](CO[C@@H]3O[C@H](CO)[C@@H](O)[C@H](O)[C@H]3O)[C@@H](O)[C@@H]2O)ccc1O | inactive: 5.47% [at 20.6 µM] | 
CN(C)c1ccc(CNC(=O)C2CCCN(S(=O)(=O)c3ccc4c(c3)oc(=O)n4C)C2)cc1 (centres undefined) | inactive: -4.59% | 
CC1=C(C(=O)Nc2ccc(Cl)cc2)C(c2ccccc2C)n2ncc(C(=O)Nc3ccc(C)cc3)c2N1 (centres undefined) |  | inconclusive: 15.8 µM [inhibitor, partial curve, poor fit]
COc1ccc(Nc2c3c(nc4ccc(NC(=O)/C=C/c5cc(OC)c(OC)c(OC)c5)cc24)CCCC3)cc1OC |  | inconclusive: 28.2 µM [inhibitor, single point]
Cc1nc(C)c(-c2ccc(SCC(=O)Nc3ccc(Cl)c(Cl)c3)nn2)s1 | inactive: -6.88% | 
COc1ccc(-c2nc3cc(NC(=O)Cc4ccc(Cl)cc4)ccc3o2)cc1OC | inactive: -18.7% | 
Cc1ccc(Cl)cc1Nc1nc2ccccc2c2nncn12 |  | inconclusive: 3.55 µM [inhibitor, single point]
CCOC(=O)c1ccc(NC(=O)Cn2nc(SC)c(S(=O)(=O)c3ccc(Cl)cc3)c2N)cc1 |  | inconclusive: 25.1 µM [inhibitor, partial curve, poor fit]
Cc1cccc(C(=O)Nc2cc3c(cc2N2CCCCC2)n(C)c(=O)c(=O)n3C)c1 | inactive: -6.34% | 
O=C(CC1N=C2c3ccccc3N=C(SCc3ccccc3F)N2C1=O)NCCc1ccccc1 (centres undefined) |  | inconclusive: 22.4 µM [inhibitor, partial curve, poor fit]
Cc1nc2c(C(=O)NCc3ccccc3)cnn2c(C)c1Cc1ccc(F)cc1 |  | inconclusive: 39.8 µM [inhibitor, single point]

Compound | activity change, negative = inhibition | Potency
Cc1ccc(NC(=O)c2cnn(-c3ccc(C)c(C)c3)c2C2CCN(C(=O)OC(C)(C)C)CC2)c(C)c1 |  | inconclusive: 17.8 µM [inhibitor, partial curve, poor fit]
Cc1[nH]c2ccc(C(=O)N3CCN(c4ccccc4F)CC3)cc2c1C |  | inconclusive: 35.5 µM [inhibitor, partial curve, poor fit]
CCc1ccc(NC(=O)CSc2nc3nc(C)cc(C)n3n2)cc1 |  | inconclusive: 31.6 µM [inhibitor, single point]
Cc1ccccc1C(=O)c1ccc(Nc2ccc(Br)cc2N)cc1Cl |  | inactive
O=C(Nc1ccc(Cl)cc1)c1cnn2c1NC(c1ccccc1)=CC2c1ccccc1 (centres undefined) |  | inconclusive: 25.1 µM [inhibitor, partial curve]
CC(C)C[C@H](N)c1nnc(SCc2ccc(Cl)cc2Cl)o1 | inactive: -12% | 
Nc1nc2c(ncn2COCCO)c(=O)[nH]1 |  | inconclusive: 31.6 µM [inhibitor, partial curve, poor fit]
CCCN(c1ccccc1F)S(=O)(=O)c1ccc2c(c1)C(C)(C)C(=O)N2C |  | inconclusive: 39.8 µM [inhibitor, partial curve, poor fit]
Cc1cc(C)c(S(=O)(=O)NCc2ccc3c(c2)CCN3C(=O)c2ccccc2)c(C)c1 |  | inconclusive: 39.8 µM [inhibitor, partial curve, poor fit]
COc1ccc(C(=O)Nc2nnc(SCc3cc(=O)c4cc(C)ccc4[nH]3)s2)cc1OC |  | inconclusive: 3.16 µM [inhibitor, partial curve, poor fit]
CCOc1ccccc1CNC(=O)CSc1n[nH]c(-c2ccccc2)n1 |  | inconclusive: 22.4 µM [inhibitor, partial curve]
Cc1cc(N2CCOCC2)cc2[nH]c(-c3c(NC[C@@H](O)c4cccc(Cl)c4)cc[nH]c3=O)nc12 |  | inconclusive: 6.85 µM [inhibitor, partial curve, poor fit] and inconclusive: 22.4 µM [inhibitor, partial curve]
CC(C)c1ccc2c(c1)NC(c1ccc(F)cc1)=NC(c1cccs1)=N2 |  | inconclusive: 31.6 µM [inhibitor, single point]
Cc1ccc(NC(=O)Nc2nnc(SCC(=O)N3CCCCC3)s2)cc1 | inactive: 6.99% | 
Cc1cc(Nc2cccc(C(F)(F)F)c2)nc2ccc(NC(=O)Cc3ccc(Cl)cc3)cc12 |  | inconclusive: 39.8 µM [inhibitor, partial curve, poor fit]
COc1cccc(CNC(=O)N2CCc3c(sc4c3CCCC4)C2c2ccc(F)cc2)c1 (centres undefined) | inactive: -16% | 
O=C1c2c(O[C@@H]3O[C@H](CO)[C@@H](O)[C@H](O)[C@H]3O)cc(O)cc2OC1(O)Cc1ccc(O)cc1 (some centres undefined) | inactive: -0.364% [at 53.3 µM] | 
C/C=C/c1ccc2oc(-c3ccc(O)c(OC)c3)c(C)c2c1 |  | inconclusive: 28.2 µM [inhibitor, single point]
COc1ccc(-c2coc3c2c(C)cc2oc(=O)c(CC(=O)O)c(C)c23)cc1 |  | inconclusive: 25.1 µM [inhibitor, partial curve]
